Laboratory results taken from the supplement of paper PMC10126150.
Values marked as one replicate rest on one cluster of the flow cell; about a third of the high ones do not repeat.
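Also: ATP exposure 15 min at 22 °C before imaging.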

The sequences below were run on ATP (assay: switch fluorescence ratio, 500 uM ATP over buffer (Cy3 cluster intensity, sum of 5 cycles each) (fold (ratio)); higher = stronger signal-on switching upon ATP binding; sequences stand for … in TCGTCGGCAGCGTCAGATGTGTATAAGAGACAGTTTTTTTTTTTTTTTTTTTTTTTTT…TC). Details: aptamer strand: ATP DNA aptamer (quencher-CACCTGGGGGAGTATTGCGGAGGAAGG + anchor), 100 nM annealed; ATP concentration: 500 uM; one replicate.
In short: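 Cy3-labelled switching-strand clusters on a modified Illumina MiSeq flow-cell were annealed to 100 nM quencher-labelled ATP aptamer and imaged first in selection buffer, then after 15 min with 500 uM ATP at 22 °C. NaOH stripping and re-annealing separated each of five buffer/ATP cycles, and clusters outside 100-1000 RFU were excluded. The fluorescence ratio sums target-cycle Cy3 intensity over buffer-cycle Cy3 intensity per cluster and averages it per switch-domain sequence.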
In the case of TTTAAGAGAC, the switch fluorescence ratio is reported as 1.08.
TTTAAGGCCC gave a switch fluorescence ratio of 1.25.
In the case of TTTAAGTCAT, the switch fluorescence ratio is reported as 1.01.
TTTAATGATG was tested, and the switch fluorescence ratio was 1.11.
TTTAATGGCA showed a switch fluorescence ratio of 1.03.
Work on TTTAATTAAA yielded a switch fluorescence ratio of 0.995.
TTTACAGCTA showed a switch fluorescence ratio of 0.998.
Work on TTTACCCAGC yielded a switch fluorescence ratio of 1.09.
With TTTACCCTTT the switch fluorescence ratio was 1.02.
In the case of TTTACCGTT, the switch fluorescence ratio is reported as 0.937.
With TTTACCTACC the switch fluorescence ratio was 1.73.
TTTACGACTT was tested, and the switch fluorescence ratio was 1.01.
Work on TTTACGTTAC yielded a switch fluorescence ratio of 1.81.
TTTACTAAGC gave a switch fluorescence ratio of 1.02.
Sequence TTTACTGGTC has a switch fluorescence ratio of 1.02.
In the case of TTTACTGTGC, the switch fluorescence ratio is reported as 1.2.
In the case of TTTAGAAAG, the switch fluorescence ratio is reported as 0.987.
In the case of TTTAGAATGG, the switch fluorescence ratio is reported as 0.975.
TTTAGAGTCG was tested, and the switch fluorescence ratio was 1.02.
TTTAGATAA was tested, and the switch fluorescence ratio was 0.963.
TTTAGCACAC showed a switch fluorescence ratio of 2.07.
Work on TTTAGCATGA yielded a switch fluorescence ratio of 1.08.
TTTAGCGGTG gave a switch fluorescence ratio of 0.987.
In the case of TTTAGTTAGC, the switch fluorescence ratio is reported as 0.948.
TTTAGTTGCA was tested, and the switch fluorescence ratio was 0.999.
TTTATCATC was tested, and the switch fluorescence ratio was 1.03.
In the case of TTTATGATCT, the switch fluorescence ratio is reported as 1.02.
With TTTATTATCC the switch fluorescence ratio was 1.01.
Sequence TTTATTATG has a switch fluorescence ratio of 1.08.
In the case of TTTATTCAAA, the switch fluorescence ratio is reported as 1.01.
Sequence TTTATTCTGG has a switch fluorescence ratio of 0.986.
With TTTATTGCTG the switch fluorescence ratio was 1.01.
For TTTATTGTTC, the switch fluorescence ratio was 1.05.
With TTTATTTCAG the switch fluorescence ratio was 0.993.
Work on TTTATTTGGC yielded a switch fluorescence ratio of 0.948.
In the case of TTTCAAAACC, the switch fluorescence ratio is reported as 1.28.
TTTCACCATC was tested, and the switch fluorescence ratio was 0.989.
TTTCACTTTG gave a switch fluorescence ratio of 1.12.
With TTTCAGCCGT the switch fluorescence ratio was 1.03.
In the case of TTTCAGCCTT, the switch fluorescence ratio is reported as 0.999.
For TTTCAGGGCA, the switch fluorescence ratio was 1.11.
Sequence TTTCAGTAAG has a switch fluorescence ratio of 1.05.
Work on TTTCATCATA yielded a switch fluorescence ratio of 0.996.
TTTCATTCTG showed a switch fluorescence ratio of 0.993.
TTTCCATATA was tested, and the switch fluorescence ratio was 1.11.
TTTCCCAGAC was tested, and the switch fluorescence ratio was 1.13.
TTTCCCCAGA was tested, and the switch fluorescence ratio was 1.14.
Sequence TTTCCGTTAG has a switch fluorescence ratio of 1.05.
TTTCCTTACG showed a switch fluorescence ratio of 1.94.
In the case of TTTCGACGGG, the switch fluorescence ratio is reported as 1.
With TTTCGAGTAC the switch fluorescence ratio was 1.02.
TTTCGATAAC was tested, and the switch fluorescence ratio was 1.02.
For TTTCGCAATA, the switch fluorescence ratio was 1.62.
TTTCGCTATC showed a switch fluorescence ratio of 4.4.
Work on TTTCGGAGCA yielded a switch fluorescence ratio of 1.7.
TTTCGGGAG showed a switch fluorescence ratio of 1.08.
TTTCGGGTTA gave a switch fluorescence ratio of 0.998.
Sequence TTTCGGTGCG has a switch fluorescence ratio of 0.999.
TTTCGTGAAC gave a switch fluorescence ratio of 1.07.
In the case of TTTCGTGACG, the switch fluorescence ratio is reported as 2.79.
In the case of TTTCGTTAAT, the switch fluorescence ratio is reported as 1.25.
Work on TTTCGTTTGA yielded a switch fluorescence ratio of 1.02.
With TTTCTACAAA the switch fluorescence ratio was 1.02.
With TTTCTACCTT the switch fluorescence ratio was 1.14.
TTTCTAGCTG showed a switch fluorescence ratio of 1.06.
TTTCTAGTTA gave a switch fluorescence ratio of 0.989.
TTTCTCCTGT was tested, and the switch fluorescence ratio was 1.01.
For TTTCTCGACG, the switch fluorescence ratio was 1.
Sequence TTTCTCGAGT has a switch fluorescence ratio of 0.966.
With TTTCTCGATA the switch fluorescence ratio was 0.971.
With TTTCTCTCAC the switch fluorescence ratio was 1.09.
For TTTCTCTGTA, the switch fluorescence ratio was 0.995.
TTTCTGATAT gave a switch fluorescence ratio of 1.04.
For TTTCTGATGT, the switch fluorescence ratio was 0.958.
TTTCTGCATA was tested, and the switch fluorescence ratio was 1.98.
Work on TTTCTGGTTA yielded a switch fluorescence ratio of 1.04.
Work on TTTGAAACAT yielded a switch fluorescence ratio of 1.05.
In the case of TTTGAAATTC, the switch fluorescence ratio is reported as 1.16.
For TTTGAACCCG, the switch fluorescence ratio was 1.02.
Sequence TTTGAAGT has a switch fluorescence ratio of 0.927.
In the case of TTTGAATAGT, the switch fluorescence ratio is reported as 0.995.
TTTGACCAAC was tested, and the switch fluorescence ratio was 1.13.
For TTTGACCCTG, the switch fluorescence ratio was 0.944.
Work on TTTGACGGCG yielded a switch fluorescence ratio of 0.96.
With TTTGACTGCC the switch fluorescence ratio was 1.3.
TTTGACTGTT showed a switch fluorescence ratio of 1.03.
With TTTGAGACCC the switch fluorescence ratio was 1.05.
Sequence TTTGAGGCAC has a switch fluorescence ratio of 1.02.
TTTGATCTGA was tested, and the switch fluorescence ratio was 1.03.
TTTGATGATT showed a switch fluorescence ratio of 1.04.
For TTTGATTAG, the switch fluorescence ratio was 1.02.
TTTGCAAGT showed a switch fluorescence ratio of 1.45.
Work on TTTGCCTCCA yielded a switch fluorescence ratio of 1.
In the case of TTTGCCTGAA, the switch fluorescence ratio is reported as 1.03.
With TTTGCCTGGC the switch fluorescence ratio was 1.04.
Work on TTTGCGCTGT yielded a switch fluorescence ratio of 1.2.
TTTGCGGACG showed a switch fluorescence ratio of 0.987.
TTTGCGGGAA was tested, and the switch fluorescence ratio was 0.977.
TTTGCTCGAT showed a switch fluorescence ratio of 0.98.
With TTTGCTGTGG the switch fluorescence ratio was 1.03.
Work on TTTGCTTAG yielded a switch fluorescence ratio of 2.28.
TTTGGAAACC gave a switch fluorescence ratio of 0.99.
For TTTGGACGAA, the switch fluorescence ratio was 0.965.
Work on TTTGGCCCCC yielded a switch fluorescence ratio of 1.08.
TTTGGCTA was tested, and the switch fluorescence ratio was 0.948.
Work on TTTGGGACCA yielded a switch fluorescence ratio of 1.03.
With TTTGGGCTTA the switch fluorescence ratio was 1.16.
Work on TTTGGTAGAT yielded a switch fluorescence ratio of 1.
TTTGGTGAGC was tested, and the switch fluorescence ratio was 0.972.
For TTTGTAGGTA, the switch fluorescence ratio was 0.979.
TTTGTATAC gave a switch fluorescence ratio of 1.66.
For TTTGTCTACA, the switch fluorescence ratio was 0.974.
TTTGTGCAAG showed a switch fluorescence ratio of 1.03.
TTTGTGCCGC showed a switch fluorescence ratio of 1.03.
For TTTGTGGAAA, the switch fluorescence ratio was 1.02.
In the case of TTTGTGTGCA, the switch fluorescence ratio is reported as 1.04.
With TTTGTTCAAT the switch fluorescence ratio was 1.04.
TTTGTTTCCT showed a switch fluorescence ratio of 1.
In the case of TTTTAAATCG, the switch fluorescence ratio is reported as 1.01.
In the case of TTTTAATAGA, the switch fluorescence ratio is reported as 0.992.
Sequence TTTTAATTC has a switch fluorescence ratio of 0.974.
In the case of TTTTACAGGC, the switch fluorescence ratio is reported as 0.981.
Sequence TTTTACCTGT has a switch fluorescence ratio of 0.988.
TTTTACTAGG was tested, and the switch fluorescence ratio was 1.07.
Work on TTTTACTCCC yielded a switch fluorescence ratio of 2.05.
In the case of TTTTAGGA, the switch fluorescence ratio is reported as 1.
TTTTATCCCT gave a switch fluorescence ratio of 1.04.
Work on TTTTATTCTC yielded a switch fluorescence ratio of 1.
With TTTTCACTTA the switch fluorescence ratio was 1.05.
With TTTTCCCAGG the switch fluorescence ratio was 2.91.
TTTTCCGGAC showed a switch fluorescence ratio of 1.15.
TTTTCGAGTG was tested, and the switch fluorescence ratio was 0.957.
TTTTCGCAAG gave a switch fluorescence ratio of 3.56.
Work on TTTTCGTGAT yielded a switch fluorescence ratio of 1.02.
In the case of TTTTCGTTT, the switch fluorescence ratio is reported as 0.986.
TTTTCTAAAC was tested, and the switch fluorescence ratio was 0.967.
TTTTCTCCCT was tested, and the switch fluorescence ratio was 1.05.
TTTTCTCTTG showed a switch fluorescence ratio of 0.979.
In the case of TTTTCTGGGC, the switch fluorescence ratio is reported as 1.05.
TTTTCTTTGT showed a switch fluorescence ratio of 0.942.
TTTTGACATA showed a switch fluorescence ratio of 1.
TTTTGACCAC showed a switch fluorescence ratio of 0.983.
For TTTTGCACCA, the switch fluorescence ratio was 1.04.
Work on TTTTGCACTC yielded a switch fluorescence ratio of 1.2.
TTTTGCCGGT was tested, and the switch fluorescence ratio was 0.962.
Sequence TTTTGCCTGT has a switch fluorescence ratio of 1.02.
For TTTTGCGGAG, the switch fluorescence ratio was 1.01.
In the case of TTTTGGGAAG, the switch fluorescence ratio is reported as 1.03.
In the case of TTTTGTATG, the switch fluorescence ratio is reported as 0.977.
Sequence TTTTGTCCG has a switch fluorescence ratio of 0.967.
Sequence TTTTGTCGAC has a switch fluorescence ratio of 0.985.
TTTTGTGCGT showed a switch fluorescence ratio of 1.02.
Work on TTTTGTGTG yielded a switch fluorescence ratio of 0.967.
In the case of TTTTGTTCT, the switch fluorescence ratio is reported as 1.01.
In the case of TTTTTACC, the switch fluorescence ratio is reported as 1.01.
Sequence TTTTTACT has a switch fluorescence ratio of 0.959.
TTTTTATACA gave a switch fluorescence ratio of 0.98.
In the case of TTTTTATCCG, the switch fluorescence ratio is reported as 1.08.
Work on TTTTTATCG yielded a switch fluorescence ratio of 1.01.
Work on TTTTTCAGAA yielded a switch fluorescence ratio of 0.994.
For TTTTTCGC, the switch fluorescence ratio was 1.03.
In the case of TTTTTCTGTG, the switch fluorescence ratio is reported as 0.995.
TTTTTTCCAA gave a switch fluorescence ratio of 1.05.
